# Measured values reported in article PMC4336329 (PLoS ONE, 2015).
# About 14,000 (4.5%) of roughly 310,000 compounds showed an effect of 50% or more. The effect is printed as a negative number. The list shows a part of the results.
# Biological target: human ether-à-go-go-related gene (hERG) potassium channel (human, UniProt Q12809)
# Experiment: primary screen, population patch clamp on CHO cells stably expressing hERG
# 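Note: peak tail current of the secondary pulse compared with the same well before compound.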
# Sequence of human ether-à-go-go-related gene (hERG) potassium channel (Q12809 whole entry, looked up): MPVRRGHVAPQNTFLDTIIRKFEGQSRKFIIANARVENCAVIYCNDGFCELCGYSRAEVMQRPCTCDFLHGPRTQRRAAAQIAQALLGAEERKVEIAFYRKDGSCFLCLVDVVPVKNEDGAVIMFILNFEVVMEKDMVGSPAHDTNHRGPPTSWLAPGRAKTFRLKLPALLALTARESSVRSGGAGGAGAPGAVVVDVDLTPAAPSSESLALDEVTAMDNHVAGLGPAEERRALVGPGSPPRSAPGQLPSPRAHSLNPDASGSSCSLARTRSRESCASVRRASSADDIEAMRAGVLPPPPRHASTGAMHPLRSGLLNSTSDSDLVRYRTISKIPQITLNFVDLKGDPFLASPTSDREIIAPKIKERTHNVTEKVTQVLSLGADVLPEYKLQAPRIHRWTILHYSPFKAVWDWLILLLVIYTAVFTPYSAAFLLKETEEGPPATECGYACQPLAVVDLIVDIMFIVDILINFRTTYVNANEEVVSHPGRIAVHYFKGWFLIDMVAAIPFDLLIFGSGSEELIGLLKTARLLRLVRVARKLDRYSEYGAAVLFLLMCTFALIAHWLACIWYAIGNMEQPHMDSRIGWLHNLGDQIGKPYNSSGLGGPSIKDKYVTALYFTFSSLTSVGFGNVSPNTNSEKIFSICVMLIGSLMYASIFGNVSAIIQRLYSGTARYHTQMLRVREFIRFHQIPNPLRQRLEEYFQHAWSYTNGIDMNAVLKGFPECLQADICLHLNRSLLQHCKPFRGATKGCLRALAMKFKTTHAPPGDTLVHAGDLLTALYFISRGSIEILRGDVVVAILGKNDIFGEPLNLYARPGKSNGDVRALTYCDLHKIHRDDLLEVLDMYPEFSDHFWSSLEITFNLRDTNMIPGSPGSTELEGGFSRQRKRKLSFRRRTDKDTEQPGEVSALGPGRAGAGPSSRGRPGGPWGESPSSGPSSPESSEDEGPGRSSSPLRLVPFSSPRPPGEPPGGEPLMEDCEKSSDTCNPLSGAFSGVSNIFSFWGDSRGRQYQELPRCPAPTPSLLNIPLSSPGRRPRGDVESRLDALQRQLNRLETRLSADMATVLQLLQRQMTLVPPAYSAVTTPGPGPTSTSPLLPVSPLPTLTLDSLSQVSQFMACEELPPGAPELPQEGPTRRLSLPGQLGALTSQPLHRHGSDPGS
row,SMILES,"hERG current change (%, negative = inhibition) at 10uM [%]"
1,COC(=O)CC1(C(=O)OC)Oc2ccc(Br)cc2C(=O)N1c1cc(Cl)c(Cl)cc1Cl (stereo not shown),11.6
2,CCc1ccc(C(=O)CSc2n[nH]c(-c3ccncc3)n2)cc1,11.2
3,COc1ccc(C(=O)c2oc3ccccc3c2NC(C)=O)cc1,0.829
4,CCCC(CCC)C(=O)Nc1cccc(C(=O)O)c1,-3.46
5,CC1CCN(c2ccc3nnc(CCC(=O)Nc4ccc(F)cc4)n3n2)CC1,-39.6
6,COc1ccc(C(=O)c2cnc3cc4c(cc3c2C)OCO4)cc1,-24.7
7,Cn1cc(Cl)c(-c2n[nH]c(=S)n2-c2ccc(F)cc2)n1,15.4
8,O=C(c1cc(-c2ccccc2)nc2ccccc12)N1N=C(C(F)F)CC1(O)C(F)F (stereo not shown),-13.2
9,CN1C(=O)CSc2ccc(C(=O)O)cc21,-3.84
10,CCN(CC(=O)Nc1ccccc1OC)C(=O)CSCc1ccc(C)cc1,-2.36
11,COC(=O)c1[nH]c2cc(OC)ccc2c1N,16
12,COc1cc(CN2CCNC(=O)C2CC(=O)N(C)CCC2CCOCC2)cc(OC)c1 (stereo not shown),14.6
13,COc1ccccc1NC(=O)CN(c1ccccc1OC)S(=O)(=O)c1ccccc1,2.41
14,Cc1nc(SCC(=O)c2ccc(F)cc2)c([N+](=O)[O-])[nH]1,27.3
15,COc1ccccc1NC(=O)C1CCN(c2ncccn2)CC1,-9.55
16,O=[N+]([O-])c1cnc(Nc2ccccc2)nc1Nc1ccccc1,9.5
17,O=C(NCCN1CCOCC1)C1CCC(CNS(=O)(=O)c2ccc(Cl)cc2)CC1 (stereo not shown),1.81
18,COc1ccc(OC)c(CCNC(=O)Cc2ccc(NC3=NC4CS(=O)(=O)CC4S3)cc2)c1 (stereo not shown),-6.43
19,O=C(NCc1ccc2[nH]c3c(c2c1)CCCC3)c1ccc(S(=O)(=O)N2CCCC2)cc1,7.54
20,CCCCNC(=O)CCN1N=C(c2ccccc2)CCC1=O,-13
21,c1ccc(C2=Nc3cccc4cccc(c34)N2)cc1,0.595
22,COC(=O)C(=N/Nc1ccccc1C(=O)OC)/C(C)=N/O,16.8
23,O=C(Nc1cc(-c2nn(CC(=O)N3CCCCC3)c(=O)c3ccccc23)ccc1N1CCOCC1)c1ccc(Cl)cc1,-52.6

row,SMILES,"hERG current change (%, negative = inhibition) at 10uM [%]"
1,Cc1cc(C)n(-c2ccc(C(=O)NCc3ccc4c(c3)OCO4)cc2)n1,-30.2
2,Nc1c(C(=O)c2ccc(F)cc2)oc2ccccc12,1.53
3,COC(=O)C(Cc1ccccc1)NS(=O)(=O)c1ccccc1Br (stereo not shown),-2.68
4,COCCCNc1nnc(Cc2ccc(Cl)cc2)c(=O)[nH]1,24.1
5,CCOC(=O)/C=c1\sc2n(c1=O)CCN=2,12.7
6,CCc1cc2ccc(C)c(C)c2nc1SCC(=O)Nc1cc(C)on1,5.72
7,Cc1cc(C)n(CCCNC(=O)C(C)(C)Oc2ccc(Cl)cc2)n1,-2.8
8,COCCCNC(=O)c1c(F)c(F)c(F)c(F)c1F,9.66
9,CCOc1cc(C(C(=O)NCC2CCCO2)N(C(=O)Cn2nnc3ccccc32)c2ccc(NC(C)=O)cc2)ccc1O (stereo not shown),11
10,Cc1ccc(NC(=O)CSc2n[nH]c(-c3ccccn3)n2)cc1,-8.06
11,Cc1sc2ncnc(N3CCC(C(=O)N(C)CC(=O)Nc4ccccc4Cl)CC3)c2c1C,-67.7
12,O=C(O)/C=C/c1cccc(OCc2ccccc2)c1,12.7
13,CN(Cc1cn(C)nc1-c1ccccc1F)Cc1nccn1C,29.5
14,Fc1ccc2[nH]c3c(c2c1)CN(C(=S)NCc1ccccc1)CC3,10.3
15,Fc1ccc2cnc(-c3ccccc3)c(-c3ccc(C(F)(F)F)cc3)c2c1,13.5
16,Cc1ccccc1C(=O)NC(=S)NC1CCS(=O)(=O)C1 (stereo not shown),4.59
17,COc1ccc(C(=O)Nc2ccccc2C(=O)N2CCN(c3ccccc3)CC2)cc1,0.882
18,COc1cc2c(cc1OC)CN(CC(=O)Nc1ccc(S(=O)(=O)N3CCCC3)cc1)CC2,-3.4
19,Cc1ccc(S(=O)(=O)/C(C#N)=C/c2c[nH]c3ccccc23)cc1,3.58
20,Fc1cccc(NC(=S)NCC(c2cccnc2)N2CCOCC2)c1 (stereo not shown),-16.1
21,CCC(C)c1ccc(OCC(=O)NNC(=O)C2CCCCC2)cc1 (stereo not shown),2.48
22,O=C(C1CCC1)N(CCc1ccccc1)Cc1nc2ccccc2c(=O)[nH]1,-4.04
23,Cc1ccc(S(=O)(=O)NC(=O)NC(C)Cc2ccccc2)cc1 (stereo not shown),34.9

row,SMILES,"hERG current change (%, negative = inhibition) at 10uM [%]"
1,CCn1c(SCC(=O)Nc2ccccc2C)nc2nc3c(cc2c1=O)COC(C)(C)C3,-21.4
2,Cc1cc2ccccc2n1CCNC(=O)C1CCCCC1,-4.75
3,Cc1ccnc(NC(=S)NC(=O)c2cncc(Br)c2)c1,-6.59
4,CCCC(=O)Nc1ccc(Br)cn1,12.9
5,Cc1ccc(P(C)(=O)c2ccc(C)cc2)cc1,11.6
6,Cc1ncc(CSc2nccc(=O)[nH]2)c(CO)c1O,21.2
7,O=C(CCCc1ccccc1)Nc1ccnn1C1CCN(Cc2ccccc2)CC1,-77.3
8,O=C(NCCOc1ccc(Cl)cc1)C1CCCCC1,2.17
9,Cc1cc(C)c2oc(C(=O)Nc3ccc(S(=O)(=O)Nc4nccs4)cc3)cc(=O)c2c1,14.5
10,Cc1noc(C)c1C(=O)N1CCCC(Nc2ccc(C(C)C)cc2)C1 (stereo not shown),22.2
11,CCc1cccc(NC(=O)c2snc3c(=O)[nH]cnc23)c1,7.58
12,C=CCOC(=O)CCCCCCCC,15.3
13,O=C(COc1ccc(Br)cc1Cl)Nn1cnnc1,14
14,CCc1nc(N2CCOCC2)c(C#N)c2c1CCCC2,-12.2
15,CCOC(=O)c1ccc(NC(=O)CSc2nnc(C3CC3)n2CC)cc1,1.87
16,COCCCC1CCN(C(=O)CCc2nnc(CCCCc3ccccc3)o2)CC1,-11.9
17,O=c1nc2cccc3c2=c(/c1=C(\O)c1ccccc1)c1ccccc1c3=O,27.7
18,CCOc1ccc(Nc2ncnc(N)n2)cc1,10.3
19,CN(C)S(=O)(=O)N(CC(=O)Nc1ccccc1F)c1ccccc1,-10.6
20,O=C(C1CC(c2ccc(F)cc2)=NO1)N1CCC2(CC1)OCCO2 (stereo not shown),-0.16
21,Cc1cc2ccccn2c1C(=S)NC(=O)c1ccccc1,6.89
22,CS(=O)(=O)c1ccc(CNC(=O)C2(C(F)(F)F)CC(CCCO)CCCO2)cc1 (stereo not shown),3.57
23,Cc1ccc(-n2c(SCC(=O)Nc3nccs3)nc3c(c2=O)SCC3)cc1,0.0407

row,SMILES,"hERG current change (%, negative = inhibition) at 10uM [%]"
1,COc1ccc(N2CC(C(=O)NCCN3C(=O)S/C(=C\c4cccnc4)C3=O)CC2=O)c(OC)c1 (stereo not shown),3.67
2,COc1ccc(OC)c(NC(=O)NNC(=O)COc2ccc(F)cc2F)c1,30.3
3,CCOC(=O)c1ccc(NC(=O)COc2cc3oc(=O)c(CC(C)O)c(C)c3cc2Cl)cc1 (stereo not shown),13.7
4,Cc1c(Cl)cccc1NC(=O)Cn1c(CCC(=O)O)ccc1-c1ccccc1,12.2
5,COC(=O)c1[nH]c2cccc(C)c2c1NC(=O)CN1CCN(C(=O)c2ccco2)CC1,-16.9
6,COc1ccc(-c2cc(-c3nnc(COC(=O)CC4CC5CCC4C5)o3)c3ccccc3n2)cc1OC (stereo not shown),1.44
7,CC(C)c1ccc(NC2CCCN(C(=O)c3cccnc3)C2)cc1 (stereo not shown),0.148
8,CCCNc1nc(OC)nc(N2CC3CC(C2)c2cccc(=O)n2C3)n1 (stereo not shown),-5.8
9,CCCCCOC(=O)c1ccccc1C(=O)O,16.1
10,CCCc1nn(C)c2c(=O)[nH]c(-c3cc(S(=O)(=O)Nc4ccc(NC(C)=O)cc4)ccc3OCC)nc12,-21.2
11,Nc1cc2c(cc1C(=O)c1ccccc1)OCCO2,-14.6
12,CCN(CC(=O)Nc1ccc(NC(C)=O)cc1)C(=O)C(c1ccccc1)c1ccccc1,-10.5
13,O=C(CSc1nnnn1-c1ccccc1)N1CCNC1=O,9.9
14,Cc1cc(=O)c2cc(C(=O)c3ccccc3)ccc2[nH]1,-4.4
15,O=C(COC(=O)Cc1ccc(S(=O)(=O)N2CCOCC2)s1)Nc1ccc([N+](=O)[O-])cc1,-22.3
16,COC(=O)C(c1ccccc1)C(C(=O)OC)c1ccccc1 (stereo not shown),-2.36
17,CCOC(=O)/C(C#N)=C/c1cc2ccccc2nc1N1CCCCC1,9.91
18,CC1CCC/C(=N/Nc2nc3ccccc3s2)C1 (stereo not shown),2.63
19,Fc1cccc(F)c1CN1CCN(Cc2c(F)cccc2F)CC1,2.57
20,O=C(COc1ccccc1C(=O)NCC1CCCO1)Nc1ccc(Cl)cc1Cl (stereo not shown),-14
21,N/C(=N\N=C\c1ccc(O)c(O)c1)c1nonc1N,6.07
22,CCOc1ccc2oc(C(=O)OCC(=O)NCc3ccc(OC)cc3)c(C)c2c1,-1.21
